# Assay results: US5763625A, “Synthesis and use of β-lapachone analogs” (priority 1995, dated 1998)
# What was measured:
# [1] = tested on: unirradiated U1-Mel cells; assay: Toxicity to unirradiated confluence-arrested U1-Mel cells
# [2] = tested on: human radioresistant melanoma (U1-Mel) cells; assay: Radiosensitization of X-irradiated confluence-arrested U1-Mel cells (survival); details: at 10 times the dose of the 3-allyl-β-lapachone
SMILES,optimal concentration range with relatively little toxicity to unirradiated cells [1] [µM],drug enhanced radiation value (DER value) [2]
C=CCC1CC2=C(OC1(C)C)c1ccccc1C(=O)C2=O (centres unmarked),4 to 40,–
CC[C@@]1(O)C(=O)OCc2c1cc1n(c2=O)Cc2cc3c(CN(C)C)c(O)ccc3nc2-1 [Topotecan],–,2.7
